Laboratory results published in the supplement of paper PMC3334620.
In all, about 33,000 sequences were measured (“E-score (-0.5 to 0.5)”: median about -0.017, highest 2% from about 0.3 on). Some of the results follow.

target: T1, Sut1 (UniProt P53032); assay: PBM E-score (8-mer binding enrichment) (E-score (-0.5 to 0.5)); higher = stronger / more preferred TF binding; most listed sequences are background and not binding sites; details: protein concentration: 200 nM; construct: GST-full length
T1 sequence: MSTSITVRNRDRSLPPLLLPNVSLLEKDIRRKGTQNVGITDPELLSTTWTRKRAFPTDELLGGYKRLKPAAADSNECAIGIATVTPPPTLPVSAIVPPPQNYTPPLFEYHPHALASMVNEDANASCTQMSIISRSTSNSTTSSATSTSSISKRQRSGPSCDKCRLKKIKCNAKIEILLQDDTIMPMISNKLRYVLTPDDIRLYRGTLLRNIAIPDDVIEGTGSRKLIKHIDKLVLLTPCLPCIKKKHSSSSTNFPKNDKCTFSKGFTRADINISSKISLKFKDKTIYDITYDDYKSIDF
Summary of the method: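 Yeast transcription factors, full-length or as DNA-binding domains, were expressed with a GST tag using PURExpress in vitro transcription/translation. At about 100-200 nM they were applied to universal all-10-mer Agilent arrays, double-stranded by primer extension on fresh or once-stripped slides. Fluorescent anti-GST detected bound protein, and masliner normalised the scans. E-scores for ungapped eight-base words, pooled with reverse complements, came from the Universal PBM Analysis Suite.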

Sequence	PBM E-score
CAATGACG	-0.0145
TATTATCA	0.277
AGGCCTTA	-0.127
ATGTAAGC	0.0518
CCTAAAGA	0.0405
GAGATTCA	0.135
TGGAAACA	-0.015
ACGAACAC	-0.125
AGTGGCTA	-0.0286
GTAATCGA	0.0961
AATCTGCC	0.0643
GTCTCCGA	0.338
ACTGGCCA	-0.0799
AAATTAAA	0.333
ACGAAACA	0.087
GTCTGCCA	-0.131
AACGTCTT	-0.113
GTACCCTA	0.0342
GCATCAGA	0.0373
TATAAACA	0.297
TATGTGCA	-0.0445
CGCTGACG	-0.331
GCCGCTCC	-0.14
ACACCTGT	-0.0292
CAGTTTGA	0.143

Sequence	PBM E-score
CGCTGCAA	0.0457
AAGGCGCT	-0.00133
CCCCGGAG	0.454
AATTCTCT	-0.133
GTCACAAA	-0.00567
CACTGACG	-0.267
GATAATTA	0.216
CGCTCAAA	0.0551
CCGTTCTC	0.0465
CGCAGCCG	-0.106
AACTGCTG	0.0352
AGAGGGTA	-0.223
AAATAGGA	0.0958
ATCCAATA	0.142
AGTGTACG	-0.159
AGCTACCG	-0.177
CGTTAGCC	0.0323
TAAGCGGA	0.16
ACGCCACT	-0.169
CCCAACCC	-0.0724
CAGAACTA	-0.0207
GTTGAGCA	0.0202
GAAAGGAC	0.154
GACAGCTC	-0.174
GATTGTGA	0.186

Sequence	PBM E-score
TACTCTCA	0.0648
CGAAGCGC	-0.0528
CGCCGGTC	-0.0721
CCGAGCCC	-0.0973
ATAGTTAA	0.203
AGTTTGCC	0.0495
AAAATTGA	0.123
CTACTGTA	0.0123
TGGTCTAA	-0.0333
CCCTACCA	-0.0844
GACAGGCC	-0.158
CGAAAGGC	0.00459
GCGGCAGA	-0.213
AGAGGACA	0.00465
ATCTAACC	0.0714
GTGTCATA	0.179
CGAAGGCG	-0.13
AACCGCAT	0.0306
AGTTCGCA	0.0569
ATCGCGAC	-0.07
CCCAACGG	-0.0131
AAGCCACC	-0.198
CCTGAGAG	-0.249
ACCCGTTC	-0.0305
ACTAAACT	0.0855

Sequence	PBM E-score
CGTTTAAC	0.058
AATTGGCT	0.127
ATGACAAA	0.0746
CGAGCTAG	0.183
GCATTCAC	0.0569
ACATCGGC	-0.0386
AAGAATAA	0.182
ACAATAGT	0.0629
GCAAAGAC	-0.00384
AACAGACG	-0.105
AAACTTCG	0.117
ACGGCAAG	-0.0665
CCAGACGA	-0.149
ATCTGGCA	-0.129
ACTTGGAA	-0.0535
AATGCCAC	0.0218
CTACATGC	-0.075
AAGGAGCT	-0.183
GTCGTATA	0.0955
AAGAATAG	0.0544
AATGGAAC	0.0496
ACCAGAGC	-0.0619
AACTCAAG	0.129
CGAAAGCG	-0.13
ACTTGGCG	-0.219

Sequence	PBM E-score
GCGACCCC	-0.313
AGTTGGTA	0.0321
AGGGCTCC	-0.0218
GGGACATA	-0.0931
CCTTGTCG	-0.234
ATCTCATG	-0.0827
ACTGGAGC	-0.337
CGTCGTAC	-0.0274
GGCACGAA	-0.196
AATTAAGT	0.241
CAGATCTG	-0.14
AATTCAGA	0.105
CGACAAAC	-0.0645
TGACCTCA	-0.125
CACGGGGG	-0.28
GGAGTACA	0.245
CAATGCTG	-0.182
CTTGGCAA	-0.162
GGAATTCA	0.156
ACAAAACT	0.145
CAAAAGCG	-0.0511
AATCTAGG	0.00837
AGCGTGTA	-0.115
ACAGTGTG	-0.196
GAATAGAC	-0.0915

Sequence	PBM E-score
GTTGATCA	0.0012
CCAAAAGG	-0.0868
ACATAATA	0.278
CCTCAATC	0.00675
ACTGATGA	0.0353
GAAACCGA	-0.145
GTGGGTGA	0.0308
CATCGGAG	0.435
CTGATCAA	-0.207
CTGCAAGC	-0.0892
CCAGCAGA	-0.273
CAATCGGC	-0.049
ACAAATTC	0.096
CCTGACAG	-0.193
GCCGCACC	-0.0928
GCCAAACA	0.105
TGTGCCAA	-0.0053
CAGTATTC	0.142
CACAATAA	0.0667
CCAAGCTC	0.0466
GCCGAAAA	0.263
CTGTACGC	-0.205
CTAGTGCA	-0.00232
AGTCAACT	-0.157
GCAAAGCA	-0.17

Sequence	PBM E-score
GCTCGGCC	-0.204
AATCGGGA	0.14
CTCCCGTC	-0.00842
ACAGTACT	-0.0354
AGGGCTCA	-0.318
CTATCGAC	-0.169
GACGGCTC	-0.116
CTGGAGCA	-0.229
CCTATCTC	-0.0562
TATGGCAA	-0.0509
AAATACCC	0.116
CCTGATCC	-0.0908
CGAGCTTA	-0.0205
GCCGTCAA	-0.198
AAGCTTGT	0.0438
GTTTGGCA	-0.0612
CTTCTGCC	-0.214
AAGGTTTG	0.048
AGCGACAA	-0.0964
AAGTTCGA	0.0625
CTACGTAA	-0.0303
ATGCCTGC	-0.104
